# Source: the supplement of paper PMC11383711
# Some of the results follow. Binding of human antibodies (heavy:light variable regions, tested as scFv in one mRNA-display pool) to influenza hemagglutinin, with or without the stem antibody CR9114 bound first. Score = (mean enrichment − median) / interquartile range of that screen; higher = more enriched, 0 = typical non-binder. Active = above the paper's cut-off per screen: stems 28; unblocked H1 Solomon Islands 5, H1 Michigan 3, H3 5, H5 19, H7 2.85, both B 5; blocked 9, 7, H5 10, H7 10, B Phuket 10, B Lee 11.5. Scores are scaled within each screen and are no affinities; replicates correlate at about 0.6 to 0.9, and antibodies rare in the pool are noisier.
# B1: AG13-3F04 (protein)
# chain 1: VQLVQSGAEMQKPGASVKVSCKASGFTFTGFYLHWVRQAPGQGLEWMGWINLNSGDTDTAQKFQGRVTMTSDTSISTAYMDLSSLKSDDTAVYYCATWYISGWYDGMDVWGQGTTVTVSS
# chain 2: DIVMTQSPLSLPVTPGEAASISCRSSQSLLNTNGYTYLDWFLQKPGQSPQLLIYLGFNRASGVPDRFSGSGSGTYFTLKISRVEAEDVGVYYCMQALQTPRTFGQGTKVEIK
# B2: 014-10-3C04 (protein)
# chain 1: QVQLVESGGGVVRPGRSQSLSCAASGFTITPYTMFWVRQAPGKGLEWVAMILYDGSSTDYAGPVKGRFTISRDNSKNTLNLQMNSLRAADTAVYYCARGYGSGKSHYYFDYWGQGTLVTVSS
# chain 2: EIVLTQSPGTLSLSPGERATLSCRASQSVSSFYLAWYQQKPGQAPRLLLYGTSNRATGIPDRFSGSGSGTDFTLTISRLEPEDFAVYYCQQYDTSLTFGPGTKVDIK
# B3: W85-2D08 (protein)
# chain 1: QVQLVQSGAEVKKPGASVKVSCKASGYSFTTFDINWVRQATGQGLEWVGWMNPNSGNTGYAQKFQGRVSMTRNTSKSTAYMELSSLTSEDTAVYFCARGVGFCDTTSCYGSWFDPWGQGTLVTVSS
# chain 2: EIVMTQSPATLSVSPGERATLSCWASQNVSSNLAWYQQKPGQAPRLLIYGATTRATGVPARFSGSGSRTEFTLTISSLQFEDFAVYYCQPYSNWRPITFGQGTRLEIK
# B4: R95-2G12 (protein)
# chain 1: EVQLVESGGDLVQPGRSLRLSCAASGFSFDEYAMHWVRQPPGKGLEWVSGINWDGHSMAYADSVKGRFTISRDNAKNSLYLQMHSLRPEDTAFYYCAKSSYGLVAPNWFDPWGPGTLVTVSS
# chain 2: DIQMTQSPSSLSASVGDRVTITCRASQSIISYLNWYQQKPGKAPKLLIYDASILQGGVPSRFSGSGSGTDFTLTISGVQPEDFATYYCQQSYSAPVSFGQGTKLDIK
# B5: 240-14-IgG-2E03 (protein)
# chain 1: QVQLQEWGAGLLKPSETLSLTCAVSGDSFSDYYWSWIRQPPGKGLEWIGEVYHDGSTNYNPSLKSRVTISIDTSKNQFSLKLTSVTAADTAVYFCARGVLGELTAIHFDYWGQGALVTVSS
# chain 2: EIVMTQSPATLSVSPGERATLSCRASQSVSSLLVWYQQKPGQTPRLLIYGASTRAPGIPARFSGSGSGTEFTLTISSLQSEDFAVYYCQQWYTFGQGTKVEIK
# B6: 008-10-5E02 (protein)
# chain 1: EVQLVESGGGLVRPGGSLRLSCAASEINVRNVWMSWVRQAPGKGPEWVGRIKREKDGGTIDYAAPVKGRFTISRDASKNMLFLLMESLQTEDTAVYYCTTDFLESLLLGSGPPRETGHFDTWGQGTLVTVSS
# chain 2: DIQMTQSPSSLSASVGDRVTITCRASQSISTYLNWYQRKPGKAPKFLIYAASNLQSGVPSRFSGSGSGTDFTLTISNLQPEDFATYYCQQSYSTPSWTFGQGTKVEIK
# B7: K77-1G05 (protein)
# chain 1: EVQLVESGGGVVQPGRSLRLSCAASGFTFSSYSLDWVRQAPGKGLEWVAVISYDGSDKYFADSVKGRFTISRDNSKNTLYLQMNSLRAEDTAVYYCARDSTGYYSFDYWGQGTLVTVSS
# chain 2: QSALTQPASVSGSPGQSITISCTGTSGDVGNYDLVSWYQHHPGKAPKLMIYEGSERPSGVSNRFSGSKSGNTASLTISGLQAEDEADYYCCSYARGGTGVFGTGTKVTVL
# B8: 039-10-5C05 (protein)
# chain 1: QVQLVESGGGLVQPGRSLRLSCAASGFSLSTYPMHWVRQAPGKGLDWVATMSYDGSHKDYADSVKGRFTISTDTSKNTLYLQMNSLRTDDTAVYYCARPRGGGYNYFRADSFDSWGQGTLVTVSS
# chain 2: DIQMTQSPSSLSASVGDRVTITCRTSQRVSTYLNWYQQKPGKSPKLLIYLASSLQSGVPSRFSGSGSGTDFSLTISSLQPEDFATYYCQQSYSMPLTFGGGTKVEIK
# B9: C1-2-E05 (protein)
# chain 1: VQLVESGGGLVQPGGSLRLSCAASGFSFSLYSMNWVRQAPGKRLEWISYISSSSGTKLYADSVKGRLTTSRDNAKSSLYLQMTNLRPEDTAVYYCVREEVIVGGIPFDYWGQGALVTVSS
# chain 2: EIVMTQSPSTLSVSPGARATLSCRASQSVGSSLAWYQQKPGQPPRLLIFGASTRATGVPARFSGSGYGTEFTLTISSLQSEDSAVYHCHQYHDWPPWTFGQGTKVEIK
# B10: AG6-3E02 (protein)
# chain 1: QLQESGPRLVRPSETLSLTCTVSGGSISSSTYYWGWIRQPPGKGLEWIGSVFYSGTTYKIPSLNSRVTISIDTSKKEFSLTLTSVTAADTAVYYCARHTYNRGSWFDHPWNYFYGMDIWGQGTTVTVSS
# chain 2: DIQMTQSPSSLSASVGDRVTITCRASHNINNYLNWYQQKPGKPPKLLIYAASSLRSGVPSRFSGSGSETDFTLTISTLEPEDFVTYYCQQSFSTPFTFGQGTKVEIK
# B11: antibody 3A03 (protein)
# chain 1: VQLVESGGGLVQPGGSLRLSCAASGFSFSSYRMNWVRQAPGKGLQWVSYISQSGGTVYYADSVKGRFTISRDNAKNSLYLQMISLRDEDTAVYFCARDEWADDYGNYYLDYWGQGTLVTVSS
# chain 2: EIVLTQSPATLSLSPGERATLSCRASQSVSSFLAWYQKKPGQAPRLLIYDAFNRATGVPARFSGSGSGTDFTLTISSLEPEDFAVYYCQQRSNWPPLTFGGGTKVEIK
# B12: 16.p.01 (protein)
# chain 1: QVQLVQSGAEVKRPGASVNVSCKTSGYTFTDYYMHWVRQAPGQGLEWMGWINPNNGGTNYAQRFQGRVTMTRDTSLSTVYMELTSLRSDDTAVYYCATYYFESSGYFRLDYWGRGTLVTVSS
# chain 2: DIQMTQSPSSLSASVGTRVPITSRASKSIARFLNRNQQKPGRAPKFMIYYASIWERGGPSRFSGGGSGTDFNFTISVLQPEDFATYYCQQSNSAPTTSGQGNKIEIK
# Molecular target: Influenza A H1N1 A/Michigan/45/2015 hemagglutinin ectodomain
# Assay: mRNA display binding score; higher = more enriched on the antigen
# Conditions: antigen blocked with: 2 µM CR9114 IgG
# Protocol: (§1)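 A pool of natively paired antibodies, displayed as scFv on mRNA, was selected once on antigen-coated beads and sequenced before and after; two replicates.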
row,Binder,mRNA display binding score
1,B1,inactive: 0.138
2,B2,inactive: -0.62
3,B3,inactive: 0.187
4,B4,inactive: -0.356
5,B5,inactive: 1.21
6,B6,active: 18
7,B7,inactive: -0.384
8,B8,inactive: -0.0896
9,B9,inactive: -0.094
10,B10,inactive: -0.399
11,B11,inactive: -0.0135
12,B12,inactive: -0.362

# Same assay, conditions: antigen blocked with: nothing
row,Binder,mRNA display binding score
1,B1,inactive: 0.897
2,B2,inactive: -0.8
3,B3,inactive: -0.539
4,B4,inactive: -0.676
5,B5,inactive: 1.31
6,B6,inactive: 0.518
7,B7,inactive: -0.65
8,B8,inactive: -0.371
9,B9,inactive: -0.0579
10,B10,inactive: -0.524
11,B11,inactive: 0.0301
12,B12,inactive: 1.21

# Molecular target: Influenza A H1N1 A/Solomon Islands/3/2006 hemagglutinin ectodomain
# Assay: as above
# Conditions: antigen blocked with: 2 µM CR9114 IgG
# Protocol: as §1
row,Binder,mRNA display binding score
1,B1,inactive: 0.181
2,B2,inactive: -0.405
3,B3,inactive: 0.292
4,B4,inactive: -0.165
5,B5,inactive: 1.22
6,B6,inactive: 4.45
7,B7,inactive: -0.522
8,B8,inactive: -0.351
9,B9,inactive: -0.256
10,B10,active: 11
11,B11,inactive: -0.197
12,B12,inactive: 0.961

# Same assay, conditions: antigen blocked with: nothing
row,Binder,mRNA display binding score
1,B1,inactive: -0.129
2,B2,inactive: -0.637
3,B3,inactive: -0.254
4,B4,inactive: -0.673
5,B5,inactive: 1.72
6,B6,inactive: 1.47
7,B7,inactive: -0.45
8,B8,inactive: -0.563
9,B9,inactive: -0.0642
10,B10,active: 7.99
11,B11,inactive: -0.274
12,B12,inactive: -0.0914

# Molecular target: Influenza A H3N2 A/Singapore/INFIMH-16-0019/2016 hemagglutinin ectodomain
# Assay: as above
# Conditions: antigen blocked with: nothing
# Protocol: as §1
row,Binder,mRNA display binding score
1,B1,inactive: 1.14
2,B2,inactive: -0.54
3,B3,inactive: 1.32
4,B4,inactive: -0.335
5,B5,inactive: 1.05
6,B6,inactive: 0.468
7,B7,inactive: -0.563
8,B8,inactive: 0.345
9,B9,inactive: 0.186
10,B10,inactive: 0.0617
11,B11,inactive: -0.107
12,B12,inactive: 0.217

# Molecular target: Influenza A H5N1 A/Qinghai/1A/2005 hemagglutinin ectodomain
# Assay: as above
# Conditions: antigen blocked with: 2 µM CR9114 IgG
# Protocol: as §1
row,Binder,mRNA display binding score
1,B1,inactive: 0.183
2,B2,inactive: -0.619
3,B3,inactive: -0.143
4,B4,inactive: -0.648
5,B5,inactive: 0.233
6,B6,inactive: 0.629
7,B7,inactive: -0.522
8,B8,inactive: -0.44
9,B9,inactive: -0.325
10,B10,inactive: -0.623
11,B11,inactive: -0.292
12,B12,inactive: 1.13

# Same assay, conditions: antigen blocked with: nothing
row,Binder,mRNA display binding score
1,B1,inactive: 0.374
2,B2,inactive: -0.385
3,B3,inactive: -0.461
4,B4,inactive: -0.498
5,B5,inactive: 0.225
6,B6,inactive: 0.00891
7,B7,inactive: -0.452
8,B8,inactive: -0.302
9,B9,inactive: -0.18
10,B10,inactive: -0.293
11,B11,inactive: -0.161
12,B12,inactive: 0.4

# Molecular target: Influenza A H7N9 A/Shanghai/2/2013 hemagglutinin ectodomain
# Assay: as above
# Conditions: antigen blocked with: 2 µM CR9114 IgG
# Protocol: as §1
row,Binder,mRNA display binding score
1,B1,inactive: 0.285
2,B2,inactive: -0.51
3,B3,inactive: -0.157
4,B4,inactive: -0.291
5,B5,inactive: 0.383
6,B6,inactive: -0.841
7,B7,inactive: -0.659
8,B8,inactive: -0.214
9,B9,inactive: 0.0079
10,B10,inactive: -0.881
11,B11,inactive: 0.363
12,B12,inactive: 0.588

# Same assay, conditions: antigen blocked with: nothing
row,Binder,mRNA display binding score
1,B1,inactive: 0.654
2,B2,inactive: -0.81
3,B3,inactive: -0.4
4,B4,inactive: -0.628
5,B5,inactive: 1.62
6,B6,inactive: -0.431
7,B7,inactive: -0.593
8,B8,inactive: -0.409
9,B9,inactive: 0.0873
10,B10,inactive: -0.632
11,B11,inactive: 0.547
12,B12,inactive: 1.26

# Molecular target: Influenza B/Lee/1940 hemagglutinin ectodomain
# Assay: as above
# Conditions: antigen blocked with: 2 µM CR9114 IgG
# Protocol: as §1
row,Binder,mRNA display binding score
1,B1,inactive: 0.0493
2,B2,inactive: 0.111
3,B3,inactive: -0.561
4,B4,inactive: -0.301
5,B5,inactive: -0.238
6,B6,inactive: 0.144
7,B7,inactive: -0.131
8,B8,inactive: -0.256
9,B9,inactive: -0.0653
10,B10,inactive: -0.259
11,B11,inactive: 0.145
12,B12,inactive: 0.912

# Same assay, conditions: antigen blocked with: nothing
row,Binder,mRNA display binding score
1,B1,inactive: -0.159
2,B2,inactive: -0.308
3,B3,inactive: 0.0351
4,B4,inactive: -0.365
5,B5,inactive: -0.154
6,B6,inactive: -0.347
7,B7,inactive: -0.329
8,B8,inactive: -0.396
9,B9,inactive: -0.192
10,B10,inactive: -0.333
11,B11,inactive: -0.207
12,B12,inactive: 0.0494

# Molecular target: Influenza B/Phuket/3073/2013 hemagglutinin ectodomain
# Assay: as above
# Conditions: antigen blocked with: 2 µM CR9114 IgG
# Protocol: as §1
row,Binder,mRNA display binding score
1,B1,inactive: 6.46
2,B2,inactive: -0.695
3,B3,inactive: -0.59
4,B4,inactive: -0.6
5,B5,inactive: 1.25
6,B6,inactive: -0.273
7,B7,inactive: -0.263
8,B8,inactive: -0.215
9,B9,inactive: -0.0448
10,B10,inactive: -0.365
11,B11,inactive: -0.102
12,B12,inactive: 0.541

# Same assay, conditions: antigen blocked with: nothing
row,Binder,mRNA display binding score
1,B1,inactive: 2.14
2,B2,inactive: -0.437
3,B3,inactive: -0.276
4,B4,inactive: -0.401
5,B5,inactive: 0.059
6,B6,inactive: -0.295
7,B7,inactive: -0.427
8,B8,inactive: -0.318
9,B9,inactive: -0.258
10,B10,inactive: -0.247
11,B11,inactive: -0.278
12,B12,inactive: 0.0329
